Among all 150,000 compounds or so, about 540 (0.36%) showed an effect of 50% or more. This is one part of the list.
Tested on: Plasmodium falciparum
Assay: Primary screen in NF54 nanoGlo assay, in single point, at 2uM, 72h; a lower Z score goes with more inhibition
Type: functional, Erythrocyte
Settings: timepoint 72 hour

SMILES | % Inhibition | Z score
Cn1cc(CNC(=O)c2ccc(OCc3ccc(Cl)cc3)cc2)cn1 | -8% | 1.08
C#CCN1CCC[C@H]1C(=O)Nc1ccc(OCc2nc(C)no2)cc1 | 6% | -0.74
CN(C(=O)c1sccc1Cl)[C@@H]1CCCC[C@@H]1O | -4% | 0.68
COc1c(C)ncnc1N1CCN(CCc2cccs2)CC1 | -3% | 0.48
CCCc1ncncc1-c1nc(C2(c3ccccc3)CC2)nn1CC(=O)O | -10% | 0.97
CCC[C@H]1CN(C(=O)CCc2ccsc2)C[C@@H]1N(C)C | -4% | 0.71
O=S(=O)(c1cccs1)N1CC[C@H](n2ccnn2)C1 | -9% | 1.54
CC[C@H](C)C(=O)NOCc1ccccc1 | -9% | 1.67
COc1ccc([C@@H]2Cn3nnc(C(=O)N4CCC(C(=O)NCCc5ccccc5)CC4)c3CO2)cc1 | -16% | 1.51
O=C(NCc1cccnc1N1CCOCC1)[C@H]1CCCN(c2cc(-n3cncn3)ncn2)C1 | 20% | -2.48
CC(=O)N1CCC[C@H](c2nc3c(s2)CCC3(C)C)C1 | 12% | -1.52
Cc1cccc(C(=O)N(C)CC2CCCCC2)n1 | -2% | 0.3
O=C(Cc1cccc2cnccc12)NC1CC(C2CCCCC2)C1 (centres undefined) | -10% | 1.31
COc1cc2ccc1Oc1cccc(c1)CO[C@H]1CN(C(=O)c3ncoc3C)C[C@@H]1NC(=O)CN(C1CC1)C(=O)CC2 | -11% | 2.12
c1cncc(CN2CCC(N3CC4(CCCCC4)[C@H]3c3ccncc3)CC2)c1 | -8% | 1.23
Cc1ccccc1C(C)Cc1nnc([C@H]2CCO[C@@H]2c2ccccc2)o1 (some centres undefined) | -6% | 1.05
CC(C)(NS(=O)(=O)CCNC(=O)OCc1ccccc1)C1CC1 | -7% | 0.92
C[C@@H](C1CCN(c2ncc(Cl)cc2F)CC1)N1CCCC1 | -10% | 1.68
O=C(c1ccc2ccccc2c1)N1CCCN(C[C@H]2CN(C(=O)c3cccs3)CCO2)CC1 | -19% | 1.84
CC(=O)N1CCC[C@H]1C(=O)N1CC=C(c2c[nH]c3ccccc23)CC1 | 11% | -1.56
Cc1c(Cl)cccc1NC(=O)CN(C)S(=O)(=O)c1ccc2c(c1)C[C@H](C)N2C(=O)C1CCC1 | -4% | 0.68
CCC(CC)c1nnc(NC(=O)c2ccc(CNC(=O)c3cccs3)cc2)s1 | 13% | -2.38
O=C(COc1ccc(F)cc1)N1CC[C@H](N2C(=O)COC2=O)C1 | -4% | 0.64
CCOc1ccccc1NC(=O)c1cc2nccc(-c3ccc(OC)c(OC)c3)n2n1 | -11% | 1.11
COc1cnc(NC(=O)NCCc2nc3c(s2)CCC3)s1 | -6% | 1.16
N#Cc1c(-c2ccc(Cl)cc2)ccn2nc(-c3c(F)cccc3F)nc12 | -3% | 0.36

SMILES | % Inhibition | Z score
CN1C[C@@H](C(=O)N2CCc3c2cccc3C(F)(F)F)CC1=O | -2% | 0.2
Cc1ccc(-n2nnc(-c3nc(-c4ccc5c(c4)OCO5)cs3)c2N)cc1F | 16% | -1.84
Cc1nnc([C@H]2CN(C(=O)C(C)C)CC23CCN(C(=O)COc2ccccc2)CC3)o1 | -5% | 0.93
COc1cc2c(-c3ccccc3)c(C)oc2cc1CN1CCC(C)CC1 | 1% | -0.19
CC1CCC(N(Cc2nnc(C(C)C)o2)C[C@H]2CCCO2)CC1 (some centres undefined) | -10% | 0.93
Cn1c(CNS(=O)(=O)CCC2CCOCC2)nnc1C1CC1 | -14% | 2.31
Cc1cc(C(=O)Nc2ccc3c(c2)OCCCO3)c(C)o1 | -7% | 0.99
COCCc1nnc(NC(=O)c2cc(C)on2)o1 | -1% | 0.11
COc1ccc2nc(-c3ccc(NS(=O)(=O)c4c(C)nn(C)c4C)cc3)sc2c1 | -4% | 0.43
OC1(CN[C@H]2CCc3cccnc3CC2)CCC(F)(F)CC1 | -9% | 1.63
COCCN1C[C@@H](Cc2cccc3cc[nH]c23)CC1=O | -5% | 0.83
CC(C)CC1(C(=O)O)NC(c2ccccc2O)C2C(=O)N(Cc3ccccc3)C(=O)C21 (centres undefined) | -10% | 1.35
Cc1cc(-c2nc(-c3cccs3)no2)n(C)n1 | -12% | 1.11
Cc1ccccc1NC(=O)C1CCC(CNS(=O)(=O)c2ccc3c(c2)C(C)(C)C(=O)N3C)CC1 (centres undefined) | -18% | 1.78
Cc1cc(NC(=O)c2cnn(C)c2)cnc1N1CCCC[C@@H]1C | -10% | 1.31
COCc1c(C(=O)NCC(C)(C)N2CCOCC2)cnn1-c1ncc(C)c(-c2cccs2)n1 | -10% | 1.52
CCCCCS(=O)(=O)N1CCC[C@H]1c1cnn(C)c1C | -15% | 2.23
NC(=O)CN1CCOc2c1ccc(F)c2F | -5% | 0.77
Cc1noc(C)c1CO[C@H]1CCOC[C@H]1NS(=O)(=O)N1CCCCC1 | -16% | 1.72
COc1cc(F)c(-c2nc3c(cnn3Cc3ccncc3)[nH]2)cc1OC | 4% | -0.6
COc1ccc(C(=O)N(CC(=O)N2CCN(c3ccc(-c4ccc(OC)cc4)nn3)CC2)[C@@H](C)c2ccccc2)cc1 | -8% | 0.99
CCC(=O)N1CCc2sc(S(=O)(=O)Nc3ccc(F)c(C)c3)cc2C1 | 3% | -0.52
Cc1nccn1CCCC(=O)N1CC[C@](C)(O)[C@H](C)C1 | -4% | 0.77
CCC(CC)NCc1cc(Br)ccc1OC | -3% | 0.5
CC(C)c1nnc2n1CCC1(CC2)CCN(C(=O)Nc2ccccc2)CC1 | -8% | 0.75
COc1ccccc1CN1CCC(CN(Cc2cccc(OCCO)c2)CC(C)C)CC1 | -6% | 0.95

Source: ChEMBL document CHEMBL4888484, “Replenishing the malaria drug discovery pipeline: Screening and hit evaluation of the MMV Hit Generation Library 1 (HGL1) against asexual blood stage Plasmodium falciparum ,using a nano luciferase reporter read-out” (2022)
